Assay results from the supplement of paper PMC4967469.
Lines with a small IC50 respond at low doses; a fit beyond the top or the lowest dose is shown as a bound at that dose. AUC, from the same fit, is the share of area under the viability curve across the 256-fold dose range; the more sensitive the line, the further below 1. For part of these data: A top dose marked as inferred was derived from the fitted curves, not read from the paper.

Key:
Experiment in all cases: Viability of human cancer cell lines after 72 h of drug (GDSC screen)
Phenformin = compound: N=C(N)NC(=N)NCCc1ccccc1 [Phenformin]; conditions: top dose 4000 µM; top dose inferred
Procedure: (§1)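 Human cancer cell lines in 384-well plates, medium with 10% serum, drug for 72 h over a 256-fold dose range (nine 2-fold or five 4-fold steps up to the top dose). Adherent lines were fixed and stained with the nucleic acid dye Syto60, suspension lines read with resazurin; signal relative to control wells, capped at 0 and 100%. One two-parameter sigmoid per drug and line, fitted in a mixed model over all curves with the slope shared within a line.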

AG-014699 = compound: CNCc1ccc(-c2[nH]c3cc(F)cc4c3c2CCNC4=O)cc1 [AG-014699]; conditions: top dose 5 µM; top dose inferred
Procedure: as §1

WHI-P97 = compound: COc1cc2ncnc(Nc3cc(Br)c(O)c(Br)c3)c2cc1OC [WHI-P97]; conditions: top dose 10.24 µM; top dose inferred
Procedure: as §1

Vinorelbine = compound: CCC1=C[C@@H]2CN(C1)Cc1c([nH]c3ccccc13)[C@@](C(=O)OC)(c1cc3c(cc1OC)N(C)[C@H]1[C@@](O)(C(=O)OC)[C@H](OC(C)=O)[C@]4(CC)C=CCN5CC[C@]31[C@@H]54)C2 [Vinorelbine]; conditions: top dose 0.064 µM; top dose inferred
Procedure: as §1

Gefitinib = compound: COc1cc2ncnc(Nc3ccc(F)c(Cl)c3)c2cc1OCCCN1CCOCC1 [Gefitinib]; conditions: top dose 0.5 µM
Procedure: as §1

QL-XI-92 = compound: C=CC(=O)Nc1cc(NC(=O)c2ccc(C)c(NC(=O)c3ccno3)c2)cc(C(F)(F)F)c1 [QL-XI-92]; conditions: top dose 10.24 µM; top dose inferred
Procedure: as §1

NU-7441 = compound: O=c1cc(N2CCOCC2)oc2c(-c3cccc4c3sc3ccccc34)cccc12 [NU-7441]; conditions: top dose 2 µM; top dose inferred
Procedure: as §1

XL-184 = compound: COc1cc2nccc(Oc3ccc(NC(=O)C4(C(=O)Nc5ccc(F)cc5)CC4)cc3)c2cc1OC [XL-184]; conditions: top dose 5.12 µM; top dose inferred
Procedure: as §1

S-Trityl-L-cysteine = compound: N[C@@H](CSC(c1ccccc1)(c1ccccc1)c1ccccc1)C(=O)O [S-Trityl-L-cysteine]; conditions: top dose 5.12 µM; top dose inferred
Procedure: as §1

EHT 1864 = compound: O=c1cc(CN2CCOCC2)occ1OCCCCCSc1ccnc2cc(C(F)(F)F)ccc12 [EHT 1864]; conditions: top dose 10 µM; top dose inferred
Procedure: as §1

## KARPAS-620 (haematopoietic neoplasm, suspension)
Phenformin
  AUC: 0.073
  IC50: < 15.6 µM
AG-014699
  AUC: 0.991
  IC50: > 5 µM
WHI-P97
  AUC: 0.944
  IC50: > 10.2 µM
Vinorelbine
  AUC: 0.464
  IC50: 0.00325 µM
Gefitinib
  AUC: 0.991
  IC50: > 0.5 µM
QL-XI-92
  AUC: 0.776
  IC50: 3.51 µM
NU-7441
  AUC: 0.986
  IC50: > 2 µM
XL-184
  AUC: 0.905
  IC50: > 5.12 µM
S-Trityl-L-cysteine
  AUC: 0.51
  IC50: 0.339 µM
EHT 1864
  AUC: 0.966
  IC50: > 10 µM

## KELLY (neuroblastoma, adherent)
Phenformin
  AUC: 0.984
  IC50: > 4000 µM
AG-014699
  AUC: 0.806
  IC50: 2.27 µM
WHI-P97
  AUC: 0.914
  IC50: > 10.2 µM
Vinorelbine
  AUC: 0.915
  IC50: > 0.064 µM
Gefitinib
  AUC: 0.989
  IC50: > 0.5 µM
QL-XI-92
  AUC: 0.989
  IC50: > 10.2 µM
NU-7441
  AUC: 0.926
  IC50: > 2 µM
XL-184
  AUC: 0.951
  IC50: > 5.12 µM
S-Trityl-L-cysteine
  AUC: 0.755
  IC50: 1.6 µM
EHT 1864
  AUC: 0.972
  IC50: > 10 µM

## KINGS-1 (glioma, adherent)
Phenformin
  AUC: 0.49
  IC50: 232 µM
AG-014699
  AUC: 0.909
  IC50: > 5 µM
WHI-P97
  AUC: 0.98
  IC50: > 10.2 µM
Vinorelbine
  AUC: 0.785
  IC50: 0.0393 µM
Gefitinib
  AUC: 0.975
  IC50: > 0.5 µM
QL-XI-92
  AUC: 0.97
  IC50: > 10.2 µM
NU-7441
  AUC: 0.937
  IC50: > 2 µM
XL-184
  AUC: 0.805
  IC50: 3.85 µM
S-Trityl-L-cysteine
  AUC: 0.751
  IC50: 2.28 µM
EHT 1864
  AUC: 0.941
  IC50: > 10 µM

## KLE (endometrium, adherent)
Phenformin
  AUC: 0.703
  IC50: 1300 µM
AG-014699
  AUC: 0.969
  IC50: > 5 µM
WHI-P97
  AUC: 0.949
  IC50: > 10.2 µM
Vinorelbine
  AUC: 0.848
  IC50: > 0.064 µM
Gefitinib
  AUC: 0.948
  IC50: > 0.5 µM
QL-XI-92
  AUC: 0.947
  IC50: > 10.2 µM
NU-7441
  AUC: 0.958
  IC50: > 2 µM
XL-184
  AUC: 0.932
  IC50: > 5.12 µM
S-Trityl-L-cysteine
  AUC: 0.824
  IC50: > 5.12 µM
EHT 1864
  AUC: 0.905
  IC50: > 10 µM

## KM-H2 (Hodgkin lymphoma, suspension)
Phenformin
  AUC: 0.993
  IC50: > 4000 µM
AG-014699
  AUC: 0.983
  IC50: > 5 µM
WHI-P97
  AUC: 0.991
  IC50: > 10.2 µM
Vinorelbine
  AUC: 0.639
Gefitinib
  AUC: 0.98
  IC50: > 0.5 µM
QL-XI-92
  AUC: 0.957
  IC50: > 10.2 µM
NU-7441
  AUC: 0.986
  IC50: > 2 µM
XL-184
  AUC: 0.972
  IC50: > 5.12 µM
S-Trityl-L-cysteine
  AUC: 0.763
  IC50: 1.58 µM
EHT 1864
  AUC: 0.873
  IC50: 7.15 µM

## KNS-42 (glioma, adherent)
Phenformin
  AUC: 0.761
  IC50: 1680 µM
AG-014699
  AUC: 0.979
  IC50: > 5 µM
WHI-P97
  AUC: 0.966
  IC50: > 10.2 µM
Vinorelbine
  AUC: 0.588
  IC50: 0.00733 µM
Gefitinib
  AUC: 0.975
  IC50: > 0.5 µM
QL-XI-92
  AUC: 0.971
  IC50: > 10.2 µM
NU-7441
  AUC: 0.984
  IC50: > 2 µM
XL-184
  AUC: 0.934
  IC50: > 5.12 µM
S-Trityl-L-cysteine
  AUC: 0.82
  IC50: 3.69 µM
EHT 1864
  AUC: 0.968
  IC50: > 10 µM

## KS-1 (glioma, adherent)
Phenformin
  AUC: 0.81
  IC50: 2780 µM
AG-014699
  AUC: 0.921
  IC50: > 5 µM
WHI-P97
  AUC: 0.968
  IC50: > 10.2 µM
Vinorelbine
  AUC: 0.375
  IC50: 0.00166 µM
Gefitinib
  AUC: 0.952
  IC50: > 0.5 µM
QL-XI-92
  AUC: 0.868
  IC50: > 10.2 µM
NU-7441
  AUC: 0.96
  IC50: > 2 µM
XL-184
  AUC: 0.761
  IC50: 2.26 µM
S-Trityl-L-cysteine
  AUC: 0.636
EHT 1864
  AUC: 0.848
  IC50: > 10 µM

## KU812 (chronic myeloid leukaemia, suspension)
Phenformin
  AUC: 0.309
  IC50: 77.1 µM
AG-014699
  AUC: 0.988
  IC50: > 5 µM
WHI-P97
  AUC: 0.988
  IC50: > 10.2 µM
Vinorelbine
  AUC: 0.638
Gefitinib
  AUC: 0.963
  IC50: > 0.5 µM
QL-XI-92
  AUC: 0.821
  IC50: 5.28 µM
NU-7441
  AUC: 0.975
  IC50: > 2 µM
XL-184
  AUC: 0.95
  IC50: > 5.12 µM
S-Trityl-L-cysteine
  AUC: 0.671
  IC50: 0.913 µM
EHT 1864
  AUC: 0.867
  IC50: 7.72 µM

## KY821 (leukaemia, suspension)
Phenformin
  AUC: 0.818
  IC50: 1890 µM
AG-014699
  AUC: 0.988
  IC50: > 5 µM
WHI-P97
  AUC: 0.991
  IC50: > 10.2 µM
Vinorelbine
  AUC: 0.967
  IC50: > 0.064 µM
Gefitinib
  AUC: 0.991
  IC50: > 0.5 µM
QL-XI-92
  AUC: 0.971
  IC50: > 10.2 µM
NU-7441
  AUC: 0.91
  IC50: > 2 µM
XL-184
  AUC: 0.969
  IC50: > 5.12 µM
S-Trityl-L-cysteine
  AUC: 0.76
  IC50: 1.6 µM
EHT 1864
  AUC: 0.961
  IC50: > 10 µM

## L-540 (Hodgkin lymphoma, suspension)
Phenformin
  AUC: 0.988
  IC50: > 4000 µM
AG-014699
  AUC: 0.99
  IC50: > 5 µM
WHI-P97
  AUC: 0.94
  IC50: > 10.2 µM
Vinorelbine
  AUC: 0.807
  IC50: 0.0286 µM
Gefitinib
  AUC: 0.99
  IC50: > 0.5 µM
QL-XI-92
  AUC: 0.932
  IC50: > 10.2 µM
NU-7441
  AUC: 0.985
  IC50: > 2 µM
XL-184
  AUC: 0.972
  IC50: > 5.12 µM
S-Trityl-L-cysteine
  AUC: 0.933
  IC50: > 5.12 µM
EHT 1864
  AUC: 0.981
  IC50: > 10 µM

## LAN-6 (neuroblastoma, adherent)
Phenformin
  AUC: 0.875
  IC50: > 4000 µM
AG-014699
  AUC: 0.951
  IC50: > 5 µM
WHI-P97
  AUC: 0.982
  IC50: > 10.2 µM
Vinorelbine
  AUC: 0.966
  IC50: > 0.064 µM
Gefitinib
  AUC: 0.963
  IC50: > 0.5 µM
QL-XI-92
  AUC: 0.96
  IC50: > 10.2 µM
NU-7441
  AUC: 0.951
  IC50: > 2 µM
XL-184
  AUC: 0.968
  IC50: > 5.12 µM
S-Trityl-L-cysteine
  AUC: 0.86
  IC50: > 5.12 µM
EHT 1864
  AUC: 0.959
  IC50: > 10 µM

## LB373-MEL-D (melanoma, adherent)
Phenformin
  AUC: 0.864
  IC50: 3370 µM
AG-014699
  AUC: 0.99
  IC50: > 5 µM
WHI-P97
  AUC: 0.963
  IC50: > 10.2 µM
Vinorelbine
  AUC: 0.824
  IC50: 0.037 µM
Gefitinib
  AUC: 0.99
  IC50: > 0.5 µM
QL-XI-92
  AUC: 0.99
  IC50: > 10.2 µM
NU-7441
  AUC: 0.99
  IC50: > 2 µM
XL-184
  AUC: 0.968
  IC50: > 5.12 µM
S-Trityl-L-cysteine
  AUC: 0.804
  IC50: 2.5 µM
EHT 1864
  AUC: 0.99
  IC50: > 10 µM
